{"source": "patent US20250186613A1", "about": "(The Trustees of the University of Pennsylvania, priority 2022, published 2025)", "molecules": {"B1": {"name": "hGLP2.Fc: fusion protein: GLP2 with A2G substitution, thrombin leader, and IgG4 Fc fusion (SEQ ID NO: 13) (protein)", "chain": "MAHVRGLQLPGCLALAALCSLVHSQHVFLAPQQARSLLQRVRRHGDGSFSDEMNTILDNLAARDFINWLIQTKITDGGGGGGSGGGGSGGGGSA[left out - human IgG4 Fc with S228P F234A L235A (EU numbers)]"}}, "system": "gut surface area", "assay": "Dosage study in NHPs", "format": "in vivo, rhesus macaques", "experimental": "In this study, we examine expression of human GLP-2 in nonhuman primates (NHPs; i.e., rhesus macaques).\nNecropsy is performed at day 60."}
{"molecule": "B1", "values": [{"measurement": "gut surface area (serum citrulline biomarker)", "setting": "high dose 1×10^13 GC/kg IM, AAVrh91.CB7.CI.hGLP-2-Fc.rBG, FIG. 8B", "value": "substantial increase in gut surface area"}, {"measurement": "anti-GLP-2-Fc antibody in NHP serum", "setting": "serum at 1:100 dilution, FIG. 8C", "value": "anti-GLP-2-Fc antibodies reduced its expression"}]}
